Assay [1] deals with CD28, a dimeric cell-surface receptor (reference dimer) (UniProt P10747). Description: FRET or BRET; FRET-FLIM data of the fixed cells sorted by stoichiometry (<0.3, 0.3-0.5, 0.5-0.7, >0.7); dimerization grade by equation (8): β1AR as monomer baseline, CD28 at stoichiometry <0.3 as 100%.
The target is the same in assay [2]. Description: FRET or BRET; FRET-FLIM (pulsed interleaved excitation) on fixed HEK293T cells, basal or apical membrane; first-named protomer with C-terminal eGFP (donor, written as binder), second with C-terminal mCherry (acceptor, written as target); donor/acceptor ratio 1:1 at transfection; lifetime-based FRET efficiency Eτ against donor-only samples. A general note: Bioluminescence resonance energy transfer reports proximity on the nanometre scale.

The target is the same in assay [3]. In words: FRET or BRET; FRET-FLIM (pulsed interleaved excitation) on fixed HEK293T cells, basal or apical membrane; first-named protomer with C-terminal eGFP (donor, written as binder), second with C-terminal mCherry (acceptor, written as target); donor/acceptor ratio 1:5 at transfection; lifetime-based FRET efficiency Eτ against donor-only samples.

Consider one substance from PMC10667928.

Turning to “CD28, a dimeric cell-surface receptor (reference dimer) (a stretch of the chain, sequence left out) (receptor; other documents disagree on this pair)”, the FRET efficiency Eτ at stoichiometry <0.3 (taken as 100% dimerization) in assay [1] was 34.1%. Also, the results for the FRET efficiency Eτ in assay [2] and in assay [3] were 19.5% and 32.6%, respectively.
